Results: PubChem BioAssay AID488969 (Vanderbilt High Throughput Screening Facility, 2010)
The full ranking holds about 110,000 compounds; the median of “z-score” is about -0.1, and the highest 2% start at about 2. Some of the results follow.

target: Metabotropic glutamate receptor 8 (Rattus norvegicus) (UniProt P70579); assay: rat mGluR8 modulators via GIRK flux, primary screen, cell-based, thallium flux, HTS (AID 488969); settings: HEK293 rat mGluR8, GIRK (G protein-gated inwardly rectifying potassium channel) thallium flux, FluoZin2; at 10 µM; stronger effect = higher value; submaximal glutamate (EC20) added with thallium
UniProt P70579, sequence (P70579 whole entry, looked up): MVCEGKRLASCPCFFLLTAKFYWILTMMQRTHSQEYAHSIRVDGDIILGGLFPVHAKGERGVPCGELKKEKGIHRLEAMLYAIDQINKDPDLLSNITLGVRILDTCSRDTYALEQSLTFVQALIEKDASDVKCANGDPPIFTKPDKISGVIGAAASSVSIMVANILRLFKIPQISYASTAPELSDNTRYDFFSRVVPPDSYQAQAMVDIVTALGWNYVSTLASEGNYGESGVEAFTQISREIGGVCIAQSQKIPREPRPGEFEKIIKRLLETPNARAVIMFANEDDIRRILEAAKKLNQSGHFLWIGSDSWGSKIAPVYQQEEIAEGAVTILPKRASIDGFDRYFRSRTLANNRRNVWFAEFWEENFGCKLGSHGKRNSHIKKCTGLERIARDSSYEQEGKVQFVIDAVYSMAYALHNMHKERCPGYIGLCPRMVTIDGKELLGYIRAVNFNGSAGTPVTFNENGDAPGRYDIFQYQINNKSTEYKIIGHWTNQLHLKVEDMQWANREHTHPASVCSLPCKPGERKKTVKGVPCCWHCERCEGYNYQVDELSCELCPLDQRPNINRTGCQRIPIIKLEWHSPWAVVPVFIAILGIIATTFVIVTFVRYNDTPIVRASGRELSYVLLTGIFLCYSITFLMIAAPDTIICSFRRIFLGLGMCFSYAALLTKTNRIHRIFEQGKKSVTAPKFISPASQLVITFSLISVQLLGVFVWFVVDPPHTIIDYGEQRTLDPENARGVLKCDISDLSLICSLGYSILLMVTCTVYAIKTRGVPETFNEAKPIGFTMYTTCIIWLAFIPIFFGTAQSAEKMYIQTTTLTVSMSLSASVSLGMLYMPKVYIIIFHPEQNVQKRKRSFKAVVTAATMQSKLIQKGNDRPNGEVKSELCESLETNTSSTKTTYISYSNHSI

First: CCC1SC2=NC(C)=C(C(=O)OCC(C)C)C(/C=C/c3ccccc3OC)N2C1=O (configuration not stated)
Second: CCCC(=O)N(Cc1cc2cc(C)ccc2[nH]c1=O)c1ccccc1OC
The z-score of the first is higher: -0.0643 for the first, -1.35 for the second.

Compared with `CCOC(=O)COn1c(-c2cccc(Cl)c2)nc2ccc([N+](=O)[O-])cc21`, `O=C(COC(=O)c1cc([N+](=O)[O-])ccc1NCc1ccccc1Cl)NCC(F)(F)F` is lower in z-score: 0.359 for the first, -0.136 for the second.

Compared with `O=C(NCc1cn2ccccc2n1)c1ccc2c(c1)OCO2`, `O=C(c1ccc2c(c1)OCO2)N1CCN(c2ccc(Cl)cc2)CC1` is lower in z-score: 0.686 for the first, -1.39 for the second.

Going from `Cc1ccc(C(=O)CN2/C(=C(\O)c3ccccc3)C(=O)c3ccccc3S2(=O)=O)c(C)c1` to `CC(OC(=O)c1cccc(N2C(=O)c3ccccc3C2=O)c1)C(=O)Nc1ccc(N(C)C)cc1` (configuration not stated), the z-score falls from 0.0903 to -0.193.

First: O=C1C2CCCN2C(c2ccccc2)N1c1ccc(Cl)cc1 (configuration not stated)
Second: O=C(CSc1ccc(Cl)cc1)OCc1nnc(-c2ccccc2)o1
The z-score of the first is lower: 0.65 for the first, 0.995 for the second.

Compared with `O=C(c1cccc(Cl)c1)N1CCN(C(=O)c2ccccc2F)CC1`, `O=C(c1cc(-c2ccncc2)nc2ccc(Br)cc12)N1CCN(c2ccccn2)CC1` is higher in z-score: -0.331 for the first, -0.181 for the second.

First: c1ccc(CCn2c(SCc3ccccc3)nnc2-c2ccncc2)cc1
Second: O=C(Cc1cccc2ccccc12)Nc1ccc2oc(-c3ccccc3)nc2c1
The z-score of the first is lower: 0.133 for the first, 0.245 for the second.

Going from `O=C(Nc1nc(-c2cccs2)cs1)C1=COCCO1` to `O=C(CSc1ccc(-c2cccs2)nn1)N1CCCCC1`, the z-score falls from 0.306 to -0.229.

Compared with `CCOC(=O)COc1c(C=O)cc(Br)cc1OC`, `CCOC(=O)/C=C1\CC(=O)Nc2cc(C)c(C)cc2N1` is higher in z-score: -0.935 for the first, 0.197 for the second.

Compared with `Cc1c(C(=O)OCC(=O)c2ccc3c(c2)OCCO3)oc2ccccc12`, `COC(=O)c1ccc(C(=O)OC)c(NC(=O)c2cc3ccccc3o2)c1` is lower in z-score: -0.038 for the first, -0.175 for the second.

First: CCN1CCN(C(=S)Nc2cccc([N+](=O)[O-])c2)CC1
Second: COC(=O)CC1C(=O)NCCN1C(=S)Nc1cccc(C)c1 (configuration not stated)
The z-score of the first is lower: -0.338 for the first, 1.08 for the second.

Compared with `CCOc1ccc(C(=O)Nc2nncs2)cc1OCC`, `COc1ccc(NC(=O)c2ccc3nccnc3c2)cc1` is lower in z-score: 0.0568 for the first, -0.263 for the second.

Compared with `CCOC(=O)N1CCN(C(=O)CSCC(=O)N=c2sc3ccccc3n2C)CC1`, `CCOC(=O)C1CCN(C(=O)c2ccc3c(c2)OCO3)CC1` is higher in z-score: -0.142 for the first, 0.189 for the second.

Going from `CCOc1cc(NC(=S)NCCCN2CCOCC2)c(OCC)cc1NC(=O)C1CC1` to `CCCCN(CC)S(=O)(=O)N1CCC(C(=O)NCCCN2CCOCC2)CC1`, the z-score rises from -0.196 to 0.383.

First: COc1cc2c3c(c1)-c1c(sn(-c4cc(OC)ccc4OC)c1=S)C(C)(C)N3C(=O)C2=O
Second: COc1ccc(OC)c(NC(=O)C(=O)/C=C(\O)c2cc(OC)ccc2OC)c1
The z-score of the first is lower: -0.000716 for the first, 0.111 for the second.

First: COC(=O)CNC(=O)c1cccc(F)c1
Second: O=C(Nc1sccc1C(=O)NCc1ccco1)c1cccnc1
The z-score of the first is higher: -0.354 for the first, -1.82 for the second.

Going from `CCOC(=O)c1sc(N)nc1-c1ccccc1` to `CCOC(=O)C(NCCCCl)c1ccccc1` (configuration not stated), the z-score rises from 0.0169 to 0.0382.

Going from `COc1ccc(NC(=O)c2ccc(NCCCN3CCOCC3)c([N+](=O)[O-])c2)cc1` to `O=C(CSc1nc(-c2ccco2)cc(C(F)(F)F)n1)Nc1ccc(C(=O)N2CCOCC2)cc1`, the z-score falls from -0.0464 to -0.356.

Compared with `CCc1nnc(SCC(=O)Nc2ccc(N3CCOCC3)cc2)o1`, `CCn1c(SCC(=O)Nc2cc(C)on2)nnc1-c1ccco1` is higher in z-score: -0.0745 for the first, 0.0545 for the second.

Going from `O=C(CCCOc1ccc(Cl)cc1)NCC1CCCO1` (configuration not stated) to `O=C(COc1ccc(S(=O)(=O)NCc2ccccc2)cc1Cl)NCC1CCCO1` (configuration not stated), the z-score rises from -0.208 to -0.149.

Compared with `CC(C)CCNC(=O)CCCOc1ccccc1`, `COc1cccc(OCc2nc3ccccc3[nH]2)c1` is higher in z-score: -0.735 for the first, 1.49 for the second.

First: COc1ccc2ccccc2c1CNCc1ccccn1
Second: CCCn1c(CNc2ccc(Br)cc2)nc2ccccc21
The z-score of the first is higher: 0.77 for the first, -1.43 for the second.

First: COC(=O)c1sccc1NC(=O)C1CC=CCC1C(=O)O (configuration not stated)
Second: O=C(Nc1ccc(Cc2ccc(NC(=O)C3CC3)c(O)c2)cc1O)C1CC1
The z-score of the first is higher: -0.091 for the first, -0.405 for the second.

First: Cc1cc(-c2[nH]nc3c2C(c2ccc(Cl)cc2)C(C#N)=C(N)O3)c(C)s1 (configuration not stated)
Second: Cc1ccc(Oc2nccc(-c3ccc(Cl)cc3)n2)cc1
The z-score of the first is lower: -1.11 for the first, 0.323 for the second.

Going from `O=C(O)c1ccc(CSCc2ccccc2F)o1` to `Cc1ccc(C(=O)CCNc2ccc(Cl)cc2)o1`, the z-score falls from 0.24 to -0.157.

Going from `C=CCn1c(COc2ccccc2F)nnc1SCCN1C(=O)c2ccccc2C1=O` to `CC(Cc1ccccc1)NC(=O)CSc1nc2nc3c(cc2c(=O)n1-c1ccccc1)COC(C)(C)C3` (configuration not stated), the z-score rises from -0.095 to 0.586.

Compared with `CC1(C)N=C(c2ccccc2)C(=O)N1`, `Cc1cc(=O)n2cc(-c3ccccc3)nc2[nH]1` is lower in z-score: -0.119 for the first, -0.318 for the second.

First: CCC(NC(=O)c1ccccc1NC(=O)c1ccc(C)cc1)C(=O)O (configuration not stated)
Second: CCc1ccccc1NC(=O)c1ccc(F)c(S(=O)(=O)N2CCC(C(N)=O)CC2)c1
The z-score of the first is lower: -0.559 for the first, 0.0987 for the second.

Compared with `CC(=O)c1c(O)cc(C)n(Cc2ccccc2)c1=O`, `Cn1c(=O)c2cn(-c3ccccc3)cc2n(C)c1=O` is lower in z-score: 0.252 for the first, -0.529 for the second.

Compared with `COc1ccc(/C=N/S(=O)(=O)c2cccs2)cc1`, `COc1ccc(S(=O)(=O)N(Cc2cccs2)C2CCCC2)cc1` is higher in z-score: -0.44 for the first, -0.28 for the second.

Compared with `Cc1snc(SCC(=O)N/N=C(\N)COc2ccc(F)cc2)c1C#N`, `COC(=O)/C=C1\C(=O)N(c2nc3ccc(OC)cc3s2)C(=S)N1c1ccc(F)cc1` is lower in z-score: 0.165 for the first, 0.0125 for the second.

Going from `CCOC(=O)C(C)CC(C)C(=O)N1CCOCCOCCN(C(=O)C(C)CC(C)C(=O)OCC)CCOCC1` (configuration not stated) to `CN(C)S(=O)(=O)N1CCN(C(=O)N2CCCCC2)CC1`, the z-score rises from -0.176 to -0.112.

First: COc1ccc(N=c2oc3cc(O)ccc3cc2C(=O)NCC2CCCO2)c(OC)c1 (configuration not stated)
Second: COc1ccc(C(=O)N(Cc2ccco2)Cc2cc3cc(C)ccc3[nH]c2=O)cc1OC
The z-score of the first is lower: -0.403 for the first, -0.268 for the second.

Going from `O=C(CN1C(=O)CNC1=O)Nc1cccc(C(F)(F)F)c1` to `O=C(O)c1cccc(N2C(=O)C3CC=C(Cl)CC3C2=O)c1` (configuration not stated), the z-score falls from -0.0494 to -0.289.

First: CC(C)CC(=O)NCC(C)NC(=O)CC(C)C (configuration not stated)
Second: CCc1ccc(C(C)NC(=O)Cn2cnc3c(=O)n(C)c(=O)n(C)c32)cc1 (configuration not stated)
The z-score of the first is higher: 0.0425 for the first, -0.0504 for the second.

First: CCn1c(CC(C)C)n[nH]c1=S
Second: CCSC1=NC(=O)/C(=C2/C=Cc3ccccc3N2CC)S1
The z-score of the first is higher: 0.226 for the first, 0.17 for the second.

First: Cc1cc(C)nc(SCc2nnc(SCc3ccccc3Cl)o2)n1
Second: COc1cccc2c(C)nc(Nc3nc(CSc4nnc(C)s4)cc(=O)[nH]3)nc12
The z-score of the first is lower: -0.23 for the first, 0.0201 for the second.

First: COc1ccc(-c2noc(CCC(=O)N3CCC(C)CC3)n2)cc1
Second: COc1ccc(NC(=O)C2CCN(C(=O)c3cccs3)CC2)cc1OC
The z-score of the first is lower: -0.232 for the first, -0.079 for the second.

First: Cc1ccc(-c2nnn(CC(=O)N(c3ccccc3F)C(C(=O)NCC3CCCO3)c3c[nH]c4ccccc34)n2)cc1 (configuration not stated)
Second: COc1ccc(CC2S/C(=C(\C#N)C(=O)NCc3ccco3)N(c3ccc(C)cc3)C2=O)cc1 (configuration not stated)
The z-score of the first is lower: -0.262 for the first, 0.758 for the second.

Going from `CN1CCN(c2ccc(Cl)cc2NC(=O)c2ccc(S(=O)(=O)N(C)C)cc2)CC1` to `Cc1cc(N2CCN(C(=O)c3ccco3)CC2)n2nc(C)c(-c3ccccc3)c2n1`, the z-score falls from 0.0426 to -0.567.

Compared with `Cc1cc(C)n(C(=O)Cn2nc(C(F)F)cc2C)n1`, `CNC(=O)COC(=O)c1nc(-n2nc(C)cc2C)ccc1Cl` is lower in z-score: 0.339 for the first, -0.115 for the second.

Compared with `COC(=O)CSc1nnc(-c2cccnc2)n1-c1cccc(OC)c1`, `COc1ccc(/C=C/C(=O)NC(=S)NNC(=O)c2c(-c3ccccc3)noc2C)cc1` is lower in z-score: 0.978 for the first, -1.66 for the second.

First: COC(=O)c1cc(OC)c(OC)cc1NC(=S)N1CCC(C(N)=O)CC1
Second: NC(=O)C1CCCN(C(=O)NC2CCCCC2)C1 (configuration not stated)
The z-score of the first is higher: -0.145 for the first, -0.503 for the second.

Compared with `CN1C(=O)c2cccc3c(S(=O)(=O)NCc4ccco4)ccc1c23`, `Cc1c(NC(=O)Cn2cnc3c(=O)n(C)c(=O)n(C)c32)cccc1-c1nc2ccccc2o1` is lower in z-score: 0.516 for the first, 0.183 for the second.

Compared with `CCOc1ccc(-n2cnnn2)cc1S(=O)(=O)NC1CC1`, `COc1cc(S(=O)(=O)N2CCCCCC2)ccc1-n1cnnn1` is higher in z-score: 0.0855 for the first, 0.116 for the second.

Compared with `C=CCc1cc(/C=N\NC(=O)CSc2nnc(CCCc3ccc(OC)c(C)c3)o2)cc(OC)c1O`, `Cc1nccn1CC(=O)N/N=C/c1cccc(O)c1` is higher in z-score: -0.175 for the first, -0.151 for the second.

Going from `CC(=O)N/N=C/c1cc(C)n(-c2ccc(Br)cc2)c1C` to `CCCOc1ccc(/C=N/NC(=S)Nc2ccccc2[N+](=O)[O-])c(O)c1`, the z-score rises from -0.334 to 0.135.

First: CCOC(=O)C1=C(C)C2C3C(=O)N(c4ccc(C)cc4C)C(=O)C3C1(C)C1C(=O)N(c3ccc(C)cc3C)C(=O)C21 (configuration not stated)
Second: CCOC(=O)c1ccc(N2C(=O)CC(N3CC(C)OC(C)C3)C2=O)cc1 (configuration not stated)
The z-score of the first is lower: -0.165 for the first, -0.00234 for the second.

Going from `CCC(CC)C(=O)Nc1cc(C)c2c(=O)oc3ccccc3c2n1` to `COC(=O)c1[nH]c2ccc(Br)cc2c1NC(=O)Oc1ccccc1`, the z-score falls from 0.182 to -0.126.

First: CCCn1nnc(NC(=O)c2ccccc2Br)n1
Second: O=C(Nc1ccccc1)c1ccc(Br)c(S(=O)(=O)Nc2cccnc2)c1
The z-score of the first is higher: 0.283 for the first, 0.107 for the second.

Compared with `c1ccc2c(c1)OCC(c1nnc3sc(-c4cnccn4)nn13)O2` (configuration not stated), `O=C1CCC(=O)N1CN(C(=O)c1ccco1)c1ccc(Cl)c(Cl)c1` is higher in z-score: -0.402 for the first, 0.0507 for the second.

First: CNC(=O)CN(c1cc(C)ccc1C)S(C)(=O)=O
Second: CCN(CC)S(=O)(=O)c1cccc2nsnc12
The z-score of the first is lower: 0.318 for the first, 0.377 for the second.

First: OC(COc1ccc2ccccc2c1Cl)CN1CCOCC1 (configuration not stated)
Second: Cc1ccc(CNC(=O)C(=O)NCC2OCCN2C(=O)c2cccs2)cc1 (configuration not stated)
The z-score of the first is higher: -0.0833 for the first, -0.105 for the second.

Compared with `Cc1cc(=O)n(CCO)c(O)c1C#N`, `CC(=O)Nc1c(C#N)c(C(C)(C)C)cn1C` is higher in z-score: -0.121 for the first, 0.449 for the second.

Compared with `Cc1nnsc1NC(=O)OCC(C)(C)C`, `CCCCOC(=O)NC1CCS(=O)(=O)C1` (configuration not stated) is lower in z-score: -0.0133 for the first, -0.0674 for the second.

First: CC1=C(C#N)C(Nc2cccc(C)n2)(C(F)(F)F)C(=O)N1 (configuration not stated)
Second: Cc1nnc(SCCn2c(N3CCC(C)CC3)nc3c2c(=O)[nH]c(=O)n3C)s1
The z-score of the first is lower: -0.55 for the first, 0.362 for the second.
